Assay results published in ChEMBL document CHEMBL4888484, “Replenishing the malaria drug discovery pipeline: Screening and hit evaluation of the MMV Hit Generation Library 1 (HGL1) against asexual blood stage Plasmodium falciparum ,using a nano luciferase reporter read-out” (2022).
In all, about 150,000 compounds went through this assay and about 540 (0.36%) showed an effect of 50% or more. The list shows a part of the results.

These compounds were tested on Plasmodium falciparum (assay: Primary screen in NF54 nanoGlo assay, in single point, at 2uM, 72h; a lower Z score goes with more inhibition). Details: timepoint 72 hour.
Type: functional, Erythrocyte

Compound	% Inhibition	Z score
CCN=C(NC)NCC1(CCOCC)CCCC1	-5%	0.89
O[C@@H]1CCN(Cc2ccccc2OCCCCN2CCOCC2)C1	8%	-0.72
CN(C)Cc1ccc(-c2ccc3c(ccn3CC(=O)Nc3cnn(C)n3)c2)cc1	13%	-1.74
CCNC(=O)N1CCC(NC(C)c2sc(CC)nc2C)C1 (stereo not drawn)	0%	-0.05
COc1ccc(COn2c(=O)c(C)[n+]([O-])c3ccccc32)cc1OC	-9%	1.41
Cc1noc(Cl)c1CCC(=O)OC[C@H]1CCCN1C(N)=O	-6%	0.83
O=C1CN(Cc2cc3ccc(Cl)cc3nc2-c2ccsc2)CCN1	-8%	0.93
COC[C@H](NC1CCC(NC(C)=O)CC1)c1ccc(C)o1 (stereo partly drawn)	5%	-0.7
Cc1cc(=O)c(OCC(=O)NCCc2nccs2)cn1C	32%	-3.6
Cc1ncc(-c2ccc(S(=O)(=O)NCc3ccco3)cc2)o1	4%	-0.76
CN(C)C(C)(C)CNc1nnc(C(F)(F)F)s1	-9%	1.56
Cn1cnn(CC(=O)N(c2ccc(F)cc2)C2CCCC2)c1=O	3%	-0.34
COC(=O)c1cc(CN2CCc3c(F)cc(F)cc32)c[nH]1	4%	-0.78
O=S(=O)(NC1C2CCOC2C12CCCC2)[C@H]1C[C@@H]1c1ccccc1 (stereo partly drawn)	1%	-0.16
Cc1ccc(N(CCC#N)C(=O)COC(=O)c2ccc(OCc3ccccc3)cc2)cc1	-6%	0.92
C[C@H](O)C(=O)N1CCc2[nH]c(-c3ccccc3)nc2C1	-5%	0.94
Cc1nc(N)sc1CC(=O)NC(C)(C)CC(C)C	-7%	1.32
COc1cc(=O)n(-c2ccccc2)cc1C(=O)N[C@@H](Cn1nccn1)C(C)C	-3%	0.52
Cc1ccc2nc(N3CCC(C(=O)NCCCN4CCN(c5cccc(Cl)c5)CC4)CC3)[nH]c2c1	5%	-0.74
Cc1ccccc1C(=O)N1CCCN(c2nc(Cc3ccccc3)nc3onc(-c4ccccc4)c23)CC1	-5%	0.51
COc1ccccc1CC(=O)N1CCC[C@H]1c1cc(C(C)C)no1	-22%	2.89
CO[C@@H](C)CS(=O)(=O)Nc1c(C)c(C#N)nn1-c1ccccc1	-12%	2.32
O=C(C[C@H]1COCCN1C(=O)Nc1ccccc1F)NCCc1ncc[nH]1	11%	-1.5
Clc1ccc(-c2nc(Nc3cccc4ccccc34)c3ccccc3n2)c(Cl)c1	-7%	0.82
